PubChem BioAssay AID493170 (National Center for Advancing Translational Sciences (NCATS), 2011)
The inconclusive results got no clear call from the source. Potencies of inconclusive entries are left out as doubtful fits.

Target: Ubiquitin carboxyl-terminal hydrolase 2 (Homo sapiens) (UniProt O75604)
Test: Ub-rhodamine 110 based assay for inhibitors Ubiquitin-specific Protease USP2a; active = well fitted inhibition curve with a large enough effect; inconclusive = small, poorly fitted or top-dose-only effect, or effect the other way; inactive = flat fitted curve, though single readings scatter; also: nearly all actives have a fitted effect of over 50% in size
Summary of the method: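 Kinetic fluorescence (485/531 nm) read each minute over 7 min after adding Ub-Rhod110 (150 nM final) to USP2a (5 nM final). The enzyme had 30 min RT exposure to compounds beforehand in Tris pH 8.0 buffer with CaCl2, CHAPS and beta-ME.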
Potency is read from the fitted curve at half-maximal effect; tags tell the direction and shape of the fitted curve.

Chain of UniProt O75604 (O75604 whole entry, looked up): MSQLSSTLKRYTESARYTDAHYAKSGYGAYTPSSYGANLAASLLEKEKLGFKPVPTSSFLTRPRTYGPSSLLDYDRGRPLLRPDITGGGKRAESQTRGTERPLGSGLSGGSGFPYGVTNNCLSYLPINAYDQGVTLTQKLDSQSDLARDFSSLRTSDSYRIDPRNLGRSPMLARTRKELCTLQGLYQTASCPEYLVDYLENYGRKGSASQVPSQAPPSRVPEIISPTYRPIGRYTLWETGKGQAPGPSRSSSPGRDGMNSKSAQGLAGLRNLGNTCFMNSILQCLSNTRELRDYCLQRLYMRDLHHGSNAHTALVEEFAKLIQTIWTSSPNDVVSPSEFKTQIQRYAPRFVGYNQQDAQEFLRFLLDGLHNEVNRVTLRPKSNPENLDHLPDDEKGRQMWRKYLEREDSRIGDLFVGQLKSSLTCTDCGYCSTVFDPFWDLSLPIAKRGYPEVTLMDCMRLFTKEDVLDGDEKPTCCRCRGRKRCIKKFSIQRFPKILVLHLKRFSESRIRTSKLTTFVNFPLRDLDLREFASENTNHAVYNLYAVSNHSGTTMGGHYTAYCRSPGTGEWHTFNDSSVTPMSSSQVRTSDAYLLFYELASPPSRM

Compound | Potency
CCOC(=O)C1=CN(Cc2cccc(F)c2)S(=O)(=O)NC1c1ccc(Br)cc1F (stereo not given) | inconclusive [inhibitor, partial curve, poor fit]
N#Cc1c(Nc2ccc(Cl)cc2)s[nH]c1=O | inconclusive [inhibitor, partial curve, poor fit]
Cc1ccc(NC(=O)c2cc3c(=O)oc4ccccc4c3s2)nc1 | inconclusive [inhibitor, partial curve]
Clc1ccccc1-c1nnc2sc(-c3cccs3)nn12 | inconclusive [inhibitor, single point]
C#CCOCCOCCOCCNc1nc(N2CCN(C(=O)CCCCCCCCCCNC(=O)[C@H](CO)n3cc(CCCSC)nn3)CC2)nc(N2CCN(C(=O)CCCCCCCCCCNC(=O)[C@H](CCCN=C(N)N)n3cc(C[C@@H](C)CC)nn3)CC2)n1 | inconclusive [inhibitor, partial curve, poor fit]
